Values joined by “and” are separate entries in the source; they are usually repeats but may differ in a detail not shown here. Identical values can stand only once. The inconclusive results got no clear call from the source; some entries with a clear call stand among them for comparison. Potencies beside an inconclusive call are fits to weak or partial responses and may not hold up. Active and inactive are the calls of the source. Unless noted, calls follow the shape of the dose curve; as a rule, active = well fitted curve in the direction sought with a large enough effect; inconclusive = small, poorly fitted or top-dose-only effect, or another doubt; inactive = no such curve, though single readings can be large; an effect the other way counts as inactive or inconclusive.
How the values were obtained:
[1] = P-glycoprotein substrates identified in KB-8-5-11 adenocarcinoma cell line, qHTS therapeutic library screen (AID 1346987); also: nearly all actives have a fitted effect of over 65% in size; as to activity change, negative = cytotoxicity: % is scaled to controls: 0 for no effect and ±100 for the full control effect
Method in brief: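 P-gp-mediated resistance screen: KB-8-5-11 cells treated 72 h with compounds in dose-response. CellTiter-Glo viability.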

[2] = target: Cytochrome P450 2D6 (Homo sapiens) (UniProt P10635); test: Cytochrome P450 family 2 subfamily D member 6 (CYP2D6) small molecule antagonists: luciferase biochemical (cell-free) qHTS assay (AID 1645840; active = well fitted curve in the direction sought with a large enough effect in the repeat runs; inconclusive = weak or mixed curves; inactive = no such curve, though single readings can be large; an effect the other way counts as inactive or inconclusive; also: nearly all actives have a fitted effect of over 55% in size)
Method in brief: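 P450-Glo luminescent screen: recombinant CYP2D6 enzyme–proluciferin substrate mix preincubated with compound 10 min at room temperature, then NADPH regeneration added for 1 h at room temperature. Detection reagent added for 20 min; luciferin light read as relative luminescence units.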

[3] = Primary qHTS for inhibitors of nuclear receptor binding SET domain protein 2 (NSD2) in an isogenic RCH-ACV NSD2 p.E1099K mutant (9B) (AID 1645876); also: nearly all actives have a fitted effect of over 70% in size
[4] = Primary fluorescence-based thiol-reactive (MSTI) qHTS assay for identification of artifact compounds. (AID 1845221);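 also: thiol-reactive compounds lower the probe fluorescence signal; nearly all actives have a fitted effect of over 65% in size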
Method in brief: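 Reactivity toward the thiol probe MSTI (4 uM) is scored by fluorescence at Ex/Em 525/598 nm after 1 h at room temperature. Acetyl-MSTI and MSTI define the activity scale.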

[5] = system: HEK293; test: Cytotoxic Profiling of Annotated Libraries Using Quantitative High-Throughput Screening (AID 1296008); conditions: Five cell lines viability, CellTiter-Glo ATP luminescence, 48-72 h; max response: stronger effect = lower value; also: nearly all actives have a fitted effect of over 60% in size; as to max response: % is scaled to controls: 0 for no effect and ±100 for the full control effect
Method in brief: (§1)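 Compounds were pin-transferred onto cells and incubated 48 or 72 hr at 37 degree Celsius, 95% humidity. CellTiter-Glo was added, plates sat 10 min at room temperature, then ATP-coupled luminescence was imaged as the viability read-out.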

[6] = system: HaCat; test: as above; conditions: Five cell lines viability, CellTiter-Glo ATP luminescence, 48-72 h; max response: stronger effect = lower value
Method in brief: as §1

[7] = system: C33A; test: Primary qHTS to identify gynecologic anti-cancer compounds using libraries of approved drugs and bioactive compounds (AID 1345084); conditions: Gynecologic cancer cell panel viability, ATPlite luminescence, 48 h; series mostly up to 57.5 µM; also: nearly all actives have a fitted effect of over 55% in size; as to activity change, negative = cytotoxicity: % is scaled to controls: 0 for no effect and ±100 for the full control effect
Method in brief: (§2)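 Measured: luminescence after ATPlite addition (15 min, RT). Exposure: 48 h, 37 C, 5% CO2.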

[8] = system: CASKI; test: as above; conditions: Gynecologic cancer cell panel viability, ATPlite luminescence, 48 h; activity change, negative = cytotoxicity: at 57.5 µM (top of the series)
Method in brief: as §2

[9] = system: OV90; test: as above; conditions: Gynecologic cancer cell panel viability, ATPlite luminescence, 48 h; series mostly up to 57.5 µM
Method in brief: as §2

[10] = system: SKOV3; test: as above; conditions: Gynecologic cancer cell panel viability, ATPlite luminescence, 48 h; series mostly up to 57.5 µM
Method in brief: as §2

[11] = system: CAOV3; test: as above; conditions: Gynecologic cancer cell panel viability, ATPlite luminescence, 48 h; series mostly up to 57.5 µM
Method in brief: as §2

[12] = system: Hek293T; test: as above; conditions: Gynecologic cancer cell panel viability, ATPlite luminescence, 48 h, control line for the selectivity index; series mostly up to 57.5 µM
Method in brief: as §2

[13] = system: Tov-21-G; test: as above; conditions: Gynecologic cancer cell panel viability, ATPlite luminescence, 48 h; activity change, negative = cytotoxicity: at 57.5 µM (top of the series)
Method in brief: as §2

[14] = system: Tov112D; test: as above; conditions: Gynecologic cancer cell panel viability, ATPlite luminescence, 48 h; activity change, negative = cytotoxicity: at 57.5 µM (top of the series)
Method in brief: as §2

[15] = system: Zika virus NS2B-NS3 protease (unlinked complex); test: Primary screen GU Rhodamine qHTS for Zika virus inhibitors: Unlinked NS2B-NS3 protease assay (AID 1347159); also: nearly all actives have a fitted effect of over 60% in size
Method in brief: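 Compounds, tested up to 114 microM, were incubated for 15 minutes with 25 nM unlinked NS2B-NS3 protease at pH 8.0. Cleavage of 1.5 microM Rhodamine110 substrate was then followed by fluorescence for 15 minutes.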

[16] = Primary qHTS for inhibitors of nuclear receptor binding SET domain protein 2 (NSD2) in an RCH-ACV wild type WT cells (2C) (AID 1645877); conditions: activity change, negative = cell killing: at 44.9 µM (top of the series); also: nearly all actives have a fitted effect of over 70% in size
[17] = system: HeLa; test: Primary qHTS to identify gynecologic anti-cancer compounds using libraries of approved drugs and bioactive compounds (AID 1345084); conditions: Gynecologic cancer cell panel viability, ATPlite luminescence, 48 h; series mostly up to 57.5 µM; also: nearly all actives have a fitted effect of over 55% in size; as to activity change, negative = cytotoxicity: % is scaled to controls: 0 for no effect and ±100 for the full control effect
Method in brief: as §2

[18] = system: PA-1; test: as above; conditions: Gynecologic cancer cell panel viability, ATPlite luminescence, 48 h; series mostly up to 57.5 µM
Method in brief: as §2
Potency is read from the fitted curve at half-maximal effect; tags tell the direction and shape of the fitted curve.

Chain of UniProt P10635 (P10635 whole entry, looked up): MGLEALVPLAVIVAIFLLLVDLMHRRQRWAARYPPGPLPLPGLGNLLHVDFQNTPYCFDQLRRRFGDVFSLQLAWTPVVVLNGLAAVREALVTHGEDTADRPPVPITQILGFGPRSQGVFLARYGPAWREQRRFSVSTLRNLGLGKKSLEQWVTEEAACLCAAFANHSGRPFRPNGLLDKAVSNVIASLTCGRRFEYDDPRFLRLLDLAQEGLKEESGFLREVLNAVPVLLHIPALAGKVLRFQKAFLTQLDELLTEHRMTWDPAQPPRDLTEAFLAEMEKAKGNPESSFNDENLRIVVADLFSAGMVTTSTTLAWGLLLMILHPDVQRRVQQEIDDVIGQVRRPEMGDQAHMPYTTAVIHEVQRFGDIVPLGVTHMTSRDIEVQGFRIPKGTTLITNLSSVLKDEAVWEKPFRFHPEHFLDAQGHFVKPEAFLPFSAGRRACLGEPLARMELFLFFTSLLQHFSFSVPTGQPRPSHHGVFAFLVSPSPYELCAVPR

CN1CC2CN(c3ccc4oc5ccccc5c(=O)c4c3)CC2C1 (centres undefined)
inactive: outcome [6]
inconclusive: Potency [1] 8.93 µM [inhibitor, single point] | Potency [2] 9.28 µM [inhibitor, single point] | Potency [3] 11.2 µM [inhibitor, single point] | Potency [4] 3.67 µM [inhibitor, partial curve] | Potency [5] 7.96 µM [inhibitor, single point] | Potency [7] 20 µM [cytotoxic, single point] | Potency [8] 20 µM [cytotoxic, single point] | Potency [9] 7.08 µM [cytotoxic, partial curve] | Potency [10] 7.94 µM [cytotoxic, partial curve, poor fit]

CC1COC(Nc2ccc3ncnc(Nc4ccc(OCc5nccs5)c(Cl)c4)c3c2)=N1 (centres undefined)
active: Potency [5] 11.6 µM | Potency [6] 1.84 µM | Potency [10] 15.8 µM
inconclusive: Potency [1] 20.6 µM [inhibitor, partial curve] | Potency [11] 31.6 µM [cytotoxic, partial curve, poor fit] | Potency [8] 25.1 µM [cytotoxic, single point] | Potency [12] 39.8 µM [cytotoxic, single point] | Potency [9] 11.2 µM [cytotoxic, partial curve] | Potency [13] 12.6 µM [cytotoxic, partial curve, poor fit] | Potency [14] 35.5 µM [cytotoxic, single point]

C/C=C(\C)C(=O)O[C@H]1[C@@H](O[C@]2(COC(=O)CC(C)C)O[C@H](COC(=O)C(C)C)[C@@H](OC(C)=O)[C@@H]2O)O[C@H](COC(C)=O)[C@@H](O)[C@@H]1O
inactive: outcome [5] | max response [6] 0.832% | Potency [11] | Potency [10]
inconclusive: Potency [15] 10 µM [inhibitor, full curve]

C/C=C/C=C/C=C/C(=O)O[C@@H]1C=C2COC(=O)[C@]2(O)[C@@]2(C)CCCC(C)(C)[C@H]12
inconclusive: Potency [15] 6.31 µM [inhibitor, full curve, poor fit] | Potency [16] 1.78 µM [inhibitor, full curve, poor fit] | Potency [5] 14.2 µM [inhibitor, single point] | Potency [6] 0.0112 µM [inhibitor, full curve, poor fit] | Potency [7] 20 µM [cytotoxic, single point] | Potency [8] 14.1 µM [cytotoxic, partial curve, poor fit] | Potency [10] 20 µM [cytotoxic, single point]
inactive: Potency [1]

Cn1nccc1Nc1nccc(-c2ccn([C@H](CO)c3ccc(Cl)c(F)c3)c(=O)c2)n1
active: Potency [3] 7.28 µM and 7.42 µM | Potency [16] 10.3 µM and 8.33 µM
inconclusive: Potency [2] 33.8 µM [inhibitor, single point] | Potency [5] 29.1 µM [inhibitor, single point] | Potency [6] 2.91 µM [inhibitor, full curve] | Potency [17] 39.8 µM [cytotoxic, single point] | Potency [9] 0.398 µM [cytotoxic, full curve, poor fit] | Potency [18] 39.8 µM [cytotoxic, single point] | Potency [10] 0.158 µM [rising, full curve, poor fit]
inactive: Potency [1] | Potency [8]

COc1cc(O)cc(/C=C/c2cccc(O)c2)c1
inactive: Potency [1] | outcome [6]
active: Potency [4] 18.9 µM
inconclusive: Potency [3] 4.09 µM [inhibitor, full curve] | Potency [16] 7.28 µM [inhibitor, partial curve] | Potency [5] 20.6 µM [inhibitor, single point] | Potency [11] 44.7 µM [cytotoxic, single point] | Potency [10] 39.8 µM [cytotoxic, single point]

Cc1cc(C(C)Nc2ccccc2C(=O)O)c2nc(N3CCOCC3)cc(=O)n2c1 (centres undefined)
inconclusive: Potency [1] 18.4 µM [inhibitor, single point] | Potency [2] 0.019 µM [inhibitor, full curve] | Potency [5] 29.1 µM [inhibitor, single point] | Potency [8] 8.91 µM [cytotoxic, partial curve, poor fit] | Potency [12] 35.5 µM [cytotoxic, single point] | Potency [10] 15.8 µM [cytotoxic, partial curve, poor fit] | Potency [13] 31.6 µM [cytotoxic, single point]
active: Potency [16] 0.728 µM | Potency [6] 7.31 µM
inactive: Potency [9]

CC[C@H]1OC(=O)[C@](C)(F)C(=O)[C@H](C)[C@@H](O[C@@H]2O[C@H](C)C[C@H](N(C)C)[C@H]2O)[C@](C)(OC)C[C@@H](C)C(=O)[C@@H](C)[C@H]2N(CCCCn3cc(-c4cccc(N)c4)nn3)C(=O)O[C@]12C
inactive: max response [6] -5.51% | Potency [7] | Potency [14]
inconclusive: Potency [16] 9.16 µM [inhibitor, partial curve] | Potency [13] 2.82 µM [rising, partial curve]
active: Potency [3] 20.5 µM | Potency [5] 1.46 µM

COC(=O)c1ccc(N2CCN(C)CC2)c(NC(=O)c2cccc(OC)c2)c1
inactive: Potency [1] | max response [6] -1.79% | Potency [8] | Potency [17] | Potency [10]
inconclusive: Potency [5] 20.6 µM [inhibitor, single point] | Potency [11] 0.141 µM [rising, full curve, poor fit]

C=C1[C@H](OC(C)=O)[C@H]2[C@@H](OC(=O)c3ccccc3)[C@@H](C)C[C@]2(O)[C@@H](OC(C)=O)[C@H](C)/C=C/C(C)(C)C(=O)[C@H](OC(C)=O)[C@H]1OC(C)=O
inconclusive: Potency [7] 10 µM [rising, partial curve, poor fit] | Potency [8] 12.6 µM [rising, single point]
inactive: Potency [4] | max response [5] -5.03% | outcome [6] | Potency [18]

COc1cc(/C=C/C(=O)OC2CC(C)=C(C(=O)O)/C2=C/CO[C@@H]2O[C@H](CO)[C@@H](O)[C@H](O)[C@H]2O)ccc1O (some centres undefined)
inactive: Potency [1] | outcome [5] | outcome [6] | Potency [8]
inconclusive: Potency [15] 31.6 µM [inhibitor, partial curve] | Potency [10] 17.8 µM [rising, single point]

CC(=O)OC1CC2(C)C(CCC(C)C23Cc2c(O)cc4c(c2O3)CNC4=O)C(C)(C)C1O (centres undefined)
inactive: Potency [4] | outcome [5] | max response [6] -6.41% | Potency [7]
inconclusive: Potency [18] 3.16 µM [rising, single point]

NC(=O)c1ccccc1O
inactive: Potency [1] | outcome [5] | Potency [11]
inconclusive: Potency [3] 29.9 µM [inhibitor, single point] | Potency [16] 29.9 µM [inhibitor, single point] | Potency [6] 5.31 µM [inhibitor, single point]

CC1CC(O)C2(OC1=O)OC1C(O)C3C4CCC5CC(OC6OC(CO)C(O)C(O)C6OC6OC(C)C(O)C(O)C6O)CCC5(C)C4CCC3(C)C1C2C (centres undefined)
inactive: Potency [15] | outcome [5] | Potency [7] | Potency [14]
inconclusive: Potency [6] 2.17 µM [inhibitor, partial curve, poor fit]

CCCCC(CC)COC(=O)c1ccccc1O (centres undefined)
inactive: outcome [5] | outcome [6] | Potency [13]

CN(C)C(=O)CNC(=O)Cc1ccccc1
inconclusive: Potency [6] 29.1 µM [inhibitor, single point]
inactive: Potency [3] | Potency [16] | max response [5] -9.26% | Potency [14]

CC(C)=CCCC1(C)C2CCC1(C)C(O)C2 (centres undefined)
inconclusive: Potency [15] 56.2 µM [inhibitor, partial curve, poor fit] | Potency [3] 29 µM [inhibitor, single point] | Potency [16] 18.3 µM [inhibitor, partial curve, poor fit] | Potency [5] 25.9 µM [inhibitor, single point]
inactive: max response [6] -23% | Potency [12]

CC1(C(=O)O)CCCC2(C)C3CCC4CC3(CCC12)CC4(O)CO (centres undefined)
inactive: max response [5] -16.5% | outcome [6] | Potency [14]
inconclusive: Potency [16] 12.7 µM [inhibitor, partial curve, poor fit] | Potency [10] 12.6 µM [rising, single point]

COc1ccncc1C(=O)NC(=O)Nc1ccc(-c2ccccc2)c(C(F)(F)F)c1
active: Potency [2] 19 µM
inconclusive: Potency [1] 23.1 µM [inhibitor, partial curve, poor fit] | Potency [5] 23.1 µM [inhibitor, single point]
inactive: Potency [4] | outcome [6] | Potency [18] | Potency [10]

C[C@@H](O)[C@H]1C(=O)N2C(C(=O)O)=C(SCCN=CN)C[C@H]12
inactive: Potency [2] | Potency [16] | max response [5] -4.83% | Potency [13]
inconclusive: Potency [6] 2.66 µM [inhibitor, partial curve]

NCC(=O)CCC(=O)O
inactive: Potency [3] | outcome [5] | max response [6] -9.5% | Potency [17] | Potency [13]

CCNC1(C(N)=O)CCN(c2ncnc3c2nc(-c2ccccc2Cl)n3-c2ccc(Cl)cc2)CC1
inactive: outcome [6]
inconclusive: Potency [3] 23 µM [inhibitor, single point] | Potency [16] 10.5 µM [inhibitor, partial curve, poor fit] | Potency [5] 23.1 µM [inhibitor, single point]

Source: PubChem BioAssay (NCATS)
